Experimental data as given in PubChem BioAssay AID1963576 (National Center for Advancing Translational Sciences (NCATS), 2024).
Hit rate of the full screen: of about 46,000 compounds, about 60 (0.1%) were called active. Another 3% or so got no clear call; they are omitted. Calls follow the shape of the dose curve; as a rule, active = well fitted inhibition curve with a large enough effect; inconclusive = small, poorly fitted or top-dose-only effect; inactive = no such curve, though single readings can be large or run the other way. Some of the results follow.

Assay: Primary qHTS assay for Inhibitors of ovarian cancer metastasis using an organotypic tumor microenvironment (TME) model. Also: nearly all actives have a fitted effect of over 65% in size.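 As to activity change, negative = inhibition: plate controls were DMSO wells for no effect and tomatine positive control wells for full effect.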
Conditions: SKOV3ip1-GFP adhesion/invasion on 3D omental model, fluorescence; series mostly up to 45.8 µM; activity change, negative = inhibition: at the top concentration
Method in brief: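 Adhesion/invasion was scored as fixed GFP-labeled SKOV3ip1 cell counts (488/509 nm), normalized to DMSO and tomatine controls. Cancer cells in serum-free medium, with four compound doses (0.36-46 umol/L), sat 2 hr at RT then 16 hr at 37 C on a 48 hr fibroblast/mesothelial/ECM culture.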

Activity change, negative = inhibition, inactive:
Cc1cc(C)c(NC(=O)Cn2c(=O)n(CCC(=O)NCc3ccccc3Cl)c(=O)c3sccc32)c(C)c1 3.03%
Cc1ccc(CNC(=O)c2cc(-c3ccc(C)cc3)nc3n[nH]c(-c4cccc([N+](=O)[O-])c4)c23)cc1 6.98%
CC1CCN(S(=O)(=O)c2ccc3c(c2)N(CC(=O)NCCCN2CCCCC2)C(=O)CS3)CC1 -11.2%
CC(C)N(C(=O)Cn1cc(S(=O)(=O)Cc2ccc(Br)cc2)c2ccccc21)C(C)C 1.6%
Cc1c(C(=O)Nc2ccc(F)c(C(F)(F)F)c2)sc2nc(-c3ccccc3)cn12 -1.18%
Cc1oc(-c2ccc(Cl)cc2)nc1CN1CCCC(C(=O)NCc2ccccc2)C1 (stereo unspecified) -12.8%
CCN1CCN(C(c2ccccc2Cl)c2c(O)cc(C)n(CCOC)c2=O)CC1 (stereo unspecified) -2.62%
Cc1ccc(Cl)cc1N1CCN(C(=O)c2cc3c(=O)oc4ccccc4c3s2)CC1 38.2%
CC1CCCN(CCCNC(=O)Cn2ncc3c([nH]c4ccccc43)c2=O)C1 (stereo unspecified) 9.05%
Nc1nn(-c2ccccc2)nc1C(=O)OCc1ccccc1 -8.73%
CC1(C)CCC(C)(C)c2cc(NC(=O)c3ccc(C(=O)O)cc3)ccc21 9.14%
CCOC(=O)c1c(C)[nH]c(C)c1S(=O)(=O)N(C)CC(=O)Nc1ccc(C)cc1Br 33.6%
COCCCNC(=O)CSC1=Nc2ccccc2C2=NC(CCC(=O)NCc3ccc(OC)cc3)C(=O)N12 (stereo unspecified) 6.89%
CC(C)(C)C(=O)Nc1ccccc1C(=O)OCc1cc(=O)n2ccsc2n1 0.631%
CCc1ccc(C2=CC(c3c(F)cccc3Cl)n3c(nc4ccccc43)N2)cc1 (stereo unspecified) 2.08%
Cc1ccc(-n2c(SCC(=O)N3CCCc4ccccc43)nc3c([nH]c4ccccc43)c2=O)cc1 10.1%
Cc1ccc(S(=O)(=O)N2CCN(Cc3nc4ccc(C)cc4o3)CC2)c(C)c1 -0.987%
Cc1nc2ccc(S(=O)(=O)NCC(=O)Nc3ccc(F)cc3F)cc2s1 32.4%
N[C@@H](Cc1cc(I)c(Oc2cc(I)c(O)c(I)c2)c(I)c1)C(=O)O -18.5%
CCOC(=O)Cc1ccc(NC(=O)N(Cc2ccc(CC)cc2)Cc2cn[nH]c2-c2ccc(OC)cc2)cc1 -3.72%
CCOC(=O)Cn1c(=O)n(C2CCCCC2)c2nc(-c3c(F)cccc3Cl)nc(C(N)=O)c21 -3.06%
O=C(Nc1ccccc1Cl)N1CCSc2ccccc21 0.806%
CC(C)CCn1c(/C=C/c2ccccc2)nc2ccccc21 -1.57%
COc1ccccc1C(=O)Nc1sc(Nc2ccccc2)nc1C(N)=O 7.31%
O=C(c1ccc2c(c1)N(Cc1ccccc1)C(=O)c1ccccc1S2(=O)=O)N1CCN(Cc2ccccc2)CC1 9.18%
Cc1ccc(NC(=O)c2cnc3sc(N4CCOCC4)nn3c2=O)cc1N(C)C -1.82%
Cc1cccc(NC(=O)Cn2c(=O)n(CCCCCC(=O)NCc3ccc4c(c3)OCO4)c(=O)c3sccc32)c1 13.3%
COC(=O)c1scc(-c2ccc(C)cc2)c1S(=O)(=O)Nc1cc(C)ccc1OC -2.09%
COc1ccc(OC)c(NS(=O)(=O)c2ccc(N3CCCCS3(=O)=O)cc2)c1 2.65%
O=C(O)C(O)Cc1ccc(O)c(O)c1 (stereo unspecified) -23.9%
COc1cccc(N2CC(NC(=O)c3cc(Cl)ccc3OC)CC2=O)c1 (stereo unspecified) 11.9%
CCOc1ccc(N2CC(NC(=O)C3CCCC3)CC2=O)cc1 (stereo unspecified) 5.84%
Cc1cc(-n2ccnc(NCCc3ccc(S(N)(=O)=O)cc3)c2=O)ccc1Br -0.75%
COc1ccc(-c2onc(C)c2C)cc1S(=O)(=O)N(C)Cc1ccccc1 -8.59%
N#Cc1c(C(F)(F)F)cc(-c2cccs2)nc1SCC(=O)Nc1cccc(Cl)c1 -13.6%
COc1ccc(C(=O)c2sc(Nc3ccccc3)nc2N)cc1 0.193%
CCOc1ccccc1C(=O)N(Cc1sccc1C)C1CCS(=O)(=O)C1 (stereo unspecified) 3.66%
Cc1ccc(NC(=O)Cn2cc(S(=O)(=O)Cc3ccc(F)cc3)c3ccccc32)cc1Cl 1.69%
Cc1c(-c2ccccc2)nc2c(Cl)cccc2c1C(=O)OCC(=O)c1ccc(F)cc1 8.86%
COc1cc(OC)c(N(C)C(=O)c2c(C)oc3ncn(CC(C)C)c(=O)c23)cc1Cl 5.94%
CCOC(=O)CSc1nc2cc3c(cc2c(=O)n1Cc1ccc(C(=O)NCCc2ccc(OC)c(OC)c2)cc1)OCO3 -7.72%
Cc1cc(C)c2c(CC(=O)N(Cc3ccc(Cl)cc3)Cc3ccco3)coc2c1 -32.7%
O=C(C1CCN(S(=O)(=O)c2ccc(Br)s2)CC1)N1CCN(c2cccc(C(F)(F)F)c2)CC1 -20.1%

outcome, inactive:
O=C(c1ccc(F)cc1)N1CCC(c2nc3ccccc3s2)CC1
COc1ccc(NC2=C(c3ccccc3)C(=O)c3ccccc32)cc1Cl
CCOc1ccc(S(=O)(=O)NCCc2c(C)[nH]c3c(Cl)cccc23)cc1C
Cc1ccc(-n2c(COCC(=O)O)nc3cccnc32)cc1
Cc1ccc(/C=C(\C#N)C(=O)Nc2cccc(Br)c2)o1
CCCCn1c(=O)nc2n(-c3ccc(Br)cc3)c3ccccc3cc-2c1=O
CCc1ccccc1-n1nnc(-c2nsc(NC(=O)c3ccc(C)c(C)c3)n2)c1C
COc1cccc(C(=O)Nc2nc(-c3ccc(Br)cc3)ns2)c1
Cc1cc(C)cc(NC(=O)CSc2nc3nccnc3c(=O)n2CCc2c[nH]c3ccccc23)c1
Cc1ccc(-c2cn3ccc(C)cc3n2)cc1
COc1ccc(Nc2nc(C)nc(N)c2S(=O)(=O)c2ccccc2)cc1
Cc1cc(C)c2c(NC(=O)c3ccccc3)c(C(=O)Nc3ccc(F)cc3)sc2n1
Cc1ccc(C)c(N2CCN(CCCNC(=O)c3ccc4nc(CCc5ccccc5)oc4c3)CC2)c1
CCCNC(=O)C1CCC(Cn2c(=O)c3sccc3n(CC(=O)NCc3cccc(OC)c3OC)c2=O)CC1 (stereo unspecified)
COc1ccc(NC(=O)c2ccco2)cc1NC(=O)c1cc(OC)c(OC)c(OC)c1
CC(=O)c1cccc(NC(=O)CN(c2cc(C)cc(C)c2)S(=O)(=O)c2c(C)noc2C)c1
COc1ccc(-c2cc(C(F)(F)F)nc(SCC(=O)NCCc3ccccc3)n2)cc1
O=C(Nc1ccccc1)c1nc[nH]c1C(=O)O
